Data taken from publication PMC4599808.
Results are given in words; binding and its absence hold for the method and conditions named. In cells and extracts the contact can be indirect. Some binding calls cover weakened binding; strength is not graded here. For some of these results: Sequences can lack the tags named with a protein.

How the values were obtained:
[1] = molecular target: Ty1 Gag (wild type, Gag-p49/p45) (S. cerevisiae) (UniProt P08405); assay: co-sedimentation; VLP assembly of Gag without p22: total protein extracts of S. paradoxus (1 Ty1 copy strain, or DG3508 with empty vector) expressing pGTy1his3-AI; 7-47% continuous sucrose gradient, 25,000 rpm, 3 h, 4°C; fractions immunoblotted for Gag
[2] = molecular target: T1, p22-V5/p18-V5 (S. cerevisiae) (UniProt P08405); assay: co-sedimentation; total protein extracts of S. paradoxus DG3508 co-expressing pGTy1his3-AI and pGp22-V5; 7-47% continuous sucrose gradient, SW41, 25,000 rpm, 3 h, 4°C; fractions immunoblotted with p18 and V5 antibodies
T1 sequence: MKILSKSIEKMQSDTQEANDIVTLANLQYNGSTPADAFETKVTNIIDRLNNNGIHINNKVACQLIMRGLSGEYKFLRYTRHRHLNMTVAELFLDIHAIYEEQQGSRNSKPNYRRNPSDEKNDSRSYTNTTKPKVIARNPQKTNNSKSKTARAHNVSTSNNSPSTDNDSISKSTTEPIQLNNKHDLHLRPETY

[3] = molecular target: T1, p22-V5/p18-V5 (S. cerevisiae); assay: co-IP; V5 antibody crosslinked to Protein A/G agarose; total cell extracts of Ty1-less S. paradoxus (DG3508) co-expressing pGTy1his3-AI and pGp22-V5; 2 h at 4°C, washed with IP Lysis buffer; Gag detected by immunoblot with p18 antibody
[4] = molecular target: Ty1 Gag I201T (S. cerevisiae) (UniProt P08405); assay: co-sedimentation; VLP assembly of Gag without p22: total protein extracts of S. paradoxus (1 Ty1 copy strain, or DG3508 with empty vector) expressing pGTy1his3-AI; 7-47% continuous sucrose gradient, 25,000 rpm, 3 h, 4°C; fractions immunoblotted for Gag
[5] = molecular target: Ty1 Gag L252R (S. cerevisiae) (UniProt P08405); assay: as above
[6] = molecular target: Ty1 Gag I343K (S. cerevisiae) (UniProt P08405); assay: as above

B1: Ty1 Gag (wild type, Gag-p49/p45) (protein, UniProt P08405 1-440)
chain: MESQQLSQHSPNSHGSACASVTSKEVHTNQDPLDVSASKTEECEKASTKANSQQTTTPASSAVPENPHHASPQPASVPPPQNGPYPQQCMMTQNQANPSGWSFYGHPSMIPYTPYQMSPMYFPPGPQSQFPQYPSSVGTPLSTPSPESGNTFTDSSSADSDMTSTKKYVRPPPMLTSPNDFPNWVKTYIKFLQNSNLGGIIPTVNGKPVRQITDDELTFLYNTFQIFAPSQFLPTWVKDILSVDYTDIMKILSKSIEKMQSDTQEANDIVTLANLQYNGSTPADAFETKVTNIIDRLNNNGIHINNKVACQLIMRGLSGEYKFLRYTRHRHLNMTVAELFLDIHAIYEEQQGSRNSKPNYRRNPSDEKNDSRSYTNTTKPKVIARNPQKTNNSKSKTARAHNVSTSNNSPSTDNDSISKSTTEPIQLNNKHDLHLRPETY
With B1 the binding [1] was “binds”, the binding [2] was “binds” and the binding [3] was “binds”.

B2: Ty1 Gag K186Q (protein, UniProt P08405 1-440)
chain: MESQQLSQHSPNSHGSACASVTSKEVHTNQDPLDVSASKTEECEKASTKANSQQTTTPASSAVPENPHHASPQPASVPPPQNGPYPQQCMMTQNQANPSGWSFYGHPSMIPYTPYQMSPMYFPPGPQSQFPQYPSSVGTPLSTPSPESGNTFTDSSSADSDMTSTKKYVRPPPMLTSPNDFPNWVQTYIKFLQNSNLGGIIPTVNGKPVRQITDDELTFLYNTFQIFAPSQFLPTWVKDILSVDYTDIMKILSKSIEKMQSDTQEANDIVTLANLQYNGSTPADAFETKVTNIIDRLNNNGIHINNKVACQLIMRGLSGEYKFLRYTRHRHLNMTVAELFLDIHAIYEEQQGSRNSKPNYRRNPSDEKNDSRSYTNTTKPKVIARNPQKTNNSKSKTARAHNVSTSNNSPSTDNDSISKSTTEPIQLNNKHDLHLRPETY
With B2 the binding [3] was “binds”.

B3: Ty1 Gag I201T (protein, UniProt P08405 1-440)
chain: MESQQLSQHSPNSHGSACASVTSKEVHTNQDPLDVSASKTEECEKASTKANSQQTTTPASSAVPENPHHASPQPASVPPPQNGPYPQQCMMTQNQANPSGWSFYGHPSMIPYTPYQMSPMYFPPGPQSQFPQYPSSVGTPLSTPSPESGNTFTDSSSADSDMTSTKKYVRPPPMLTSPNDFPNWVKTYIKFLQNSNLGGITPTVNGKPVRQITDDELTFLYNTFQIFAPSQFLPTWVKDILSVDYTDIMKILSKSIEKMQSDTQEANDIVTLANLQYNGSTPADAFETKVTNIIDRLNNNGIHINNKVACQLIMRGLSGEYKFLRYTRHRHLNMTVAELFLDIHAIYEEQQGSRNSKPNYRRNPSDEKNDSRSYTNTTKPKVIARNPQKTNNSKSKTARAHNVSTSNNSPSTDNDSISKSTTEPIQLNNKHDLHLRPETY
In the case of B3, the binding [4] is reported as “binds”.

B4: Ty1 Gag L252R (protein, UniProt P08405 1-440)
chain: MESQQLSQHSPNSHGSACASVTSKEVHTNQDPLDVSASKTEECEKASTKANSQQTTTPASSAVPENPHHASPQPASVPPPQNGPYPQQCMMTQNQANPSGWSFYGHPSMIPYTPYQMSPMYFPPGPQSQFPQYPSSVGTPLSTPSPESGNTFTDSSSADSDMTSTKKYVRPPPMLTSPNDFPNWVKTYIKFLQNSNLGGIIPTVNGKPVRQITDDELTFLYNTFQIFAPSQFLPTWVKDILSVDYTDIMKIRSKSIEKMQSDTQEANDIVTLANLQYNGSTPADAFETKVTNIIDRLNNNGIHINNKVACQLIMRGLSGEYKFLRYTRHRHLNMTVAELFLDIHAIYEEQQGSRNSKPNYRRNPSDEKNDSRSYTNTTKPKVIARNPQKTNNSKSKTARAHNVSTSNNSPSTDNDSISKSTTEPIQLNNKHDLHLRPETY
For B4, the binding [5] was “binds”.

B5: Ty1 Gag I343K (protein, UniProt P08405 1-440)
chain: MESQQLSQHSPNSHGSACASVTSKEVHTNQDPLDVSASKTEECEKASTKANSQQTTTPASSAVPENPHHASPQPASVPPPQNGPYPQQCMMTQNQANPSGWSFYGHPSMIPYTPYQMSPMYFPPGPQSQFPQYPSSVGTPLSTPSPESGNTFTDSSSADSDMTSTKKYVRPPPMLTSPNDFPNWVKTYIKFLQNSNLGGIIPTVNGKPVRQITDDELTFLYNTFQIFAPSQFLPTWVKDILSVDYTDIMKILSKSIEKMQSDTQEANDIVTLANLQYNGSTPADAFETKVTNIIDRLNNNGIHINNKVACQLIMRGLSGEYKFLRYTRHRHLNMTVAELFLDKHAIYEEQQGSRNSKPNYRRNPSDEKNDSRSYTNTTKPKVIARNPQKTNNSKSKTARAHNVSTSNNSPSTDNDSISKSTTEPIQLNNKHDLHLRPETY
B5 was tested, and the binding [6] was “no binding”.
